The whole screen tested about 45,000 compounds, of which about 65 (0.1%) were called active. The call rests on the fitted dose curve; in most records, active means well fitted activation curve with a large enough effect; inconclusive means small, poorly fitted or top-dose-only effect; inactive means no such curve, though single readings can be large or run the other way. This is one part of the list.
Biological target: Galactocerebrosidase (Homo sapiens) (UniProt P54803)
Assay: A Novel Cell-Based Assay to Identify Small Molecules for B -Galactocerebrosidase; further: 0% is about no effect; nearly all actives have a fitted effect of over 65% in size
Conditions: 145M-Twi-hGALC-G270D cells (Twitcher mouse brain line with human GALC G270D), HMU-beta-Gal fluorescence, 48 h; series mostly up to 57.5 µM; activation: at the top concentration
How it was run: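 Mutant human GALC (G270D), stably expressed in a Twitcher mouse brain cell line lacking endogenous GALC, is measured in live-treated cells via 6-hexadecanoylamino-4-methylumbelliferyl-β-galactoside hydrolysis (0.1 mM final, pH 5.2) with fluorescent detection.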

Sequence of UniProt P54803 (P54803 whole entry, looked up): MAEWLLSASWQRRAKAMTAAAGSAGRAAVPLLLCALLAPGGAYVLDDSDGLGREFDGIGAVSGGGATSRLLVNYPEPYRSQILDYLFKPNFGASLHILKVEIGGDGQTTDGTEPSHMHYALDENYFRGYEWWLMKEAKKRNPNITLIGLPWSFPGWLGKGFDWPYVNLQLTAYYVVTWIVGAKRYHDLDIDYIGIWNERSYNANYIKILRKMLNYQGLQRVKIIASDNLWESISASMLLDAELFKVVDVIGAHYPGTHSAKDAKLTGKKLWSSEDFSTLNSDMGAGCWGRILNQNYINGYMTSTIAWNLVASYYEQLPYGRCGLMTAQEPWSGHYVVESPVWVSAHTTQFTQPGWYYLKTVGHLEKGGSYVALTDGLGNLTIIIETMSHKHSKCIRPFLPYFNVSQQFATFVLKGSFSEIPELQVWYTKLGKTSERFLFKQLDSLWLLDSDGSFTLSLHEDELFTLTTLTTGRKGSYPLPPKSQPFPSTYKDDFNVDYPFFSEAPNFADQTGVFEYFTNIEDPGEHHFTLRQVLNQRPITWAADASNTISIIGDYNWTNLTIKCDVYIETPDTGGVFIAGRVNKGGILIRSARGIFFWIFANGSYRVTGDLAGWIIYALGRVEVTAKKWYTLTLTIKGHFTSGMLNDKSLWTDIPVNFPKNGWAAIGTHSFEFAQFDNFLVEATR

activation, inactive:
CCOC(=O)Cn1c(=O)n(CC2CCCO2)c2nc(-c3cccc(C)c3)nc(C(N)=O)c21 (stereo unspecified) -0.84%
COC(=O)c1ccc(-n2c(CCC(=O)O)ccc2-c2ccc(C)cc2)cc1 -7.57%
Cc1c(Cl)cccc1NC(=O)c1noc2c1CCCC2 -12.9%
CNS(=O)(=O)c1cn(CC(=O)Nc2cccc(OC)c2)cc1S(=O)(=O)NC -11.8%
CCOc1ccccc1NC(=O)CCc1c(C)nn(-c2ccc(N3CCOCC3)nn2)c1C 5.28%
Cc1ccc(NC(=O)CSc2ncn[nH]2)cc1C -13.8%
CCCCSCCCNC(=O)c1cn(C)c2ccc(S(=O)(=O)N3CCCCC3)cc2c1=O 6.01%
COc1ccc(-n2nc(C(=O)Nc3ccc(C)cn3)c3c4ccccc4n(C)c3c2=O)cc1 -10.5%
Cc1ccc(-n2cc(-c3ccccc3)nc2S(=O)(=O)CC(=O)Nc2ccc(F)cc2)cc1 5.56%
Cc1ccc(N(CC(=O)NCc2ccc(F)cc2)S(=O)(=O)c2c(C)nn(C)c2C)cc1 -12.9%
COc1cccc(CNC(=O)c2ccc3c(c2)nnn3C2CCCC2)c1 -4.53%
Cc1ccc(C)c(N2CCN(C(=O)C3CCCN(S(=O)(=O)c4cccc5nsnc45)C3)CC2)c1 (stereo unspecified) 0.477%
O=C(CNC(=O)c1ccccc1F)OCc1cc(=O)n2ccsc2n1 -15.9%
COc1ccccc1C(=O)Nc1nnc(SCc2cc(=O)c3cc(Cl)ccc3[nH]2)s1 16.6%
COc1ccc(OC)c(NC(=O)Cn2ccc3ccccc3c2=O)c1 -13.5%
COc1ccc(NC(=O)c2c(-c3ccc(C)cc3)nnc3ccccc23)cc1Cl 1.16%
CCN(CC)C(=O)Cn1c(=O)n(-c2ccc(OC)cc2OC)c(=O)c2c(C)c(C(=O)N(CC)CC)sc21 -16.3%
Cc1nc(-c2ccc(Cl)cc2)sc1CCNC(=O)Cc1ccc(F)cc1 7.29%
COc1ccc(C)cc1NC(=O)Cn1c(=O)cc(C)c2c(C)nn(C)c21 -3.62%
O=S(=O)(c1ccccc1)c1nc(-c2ccc(Cl)cc2Cl)oc1N1CCCCC1 4.02%
CCN(CC)CCCNC(=O)c1cn(CC)c2ccc(S(=O)(=O)N3CCc4ccccc4C3)cc2c1=O -13.1%
Cc1ccc(C(=O)Nc2cccc(O)c2)cc1S(=O)(=O)N1CCCCCC1 25%
CCCN(CCC)C(=O)Cn1c(=O)n(-c2ccccc2)c(=O)c2c3c(sc21)CCCC3 -14%
N#C/C(=C/c1ccc(Cl)cc1)c1nc(-c2ccc(Br)cc2)cs1 -10.5%
O=S(=O)(NCc1nc2cccnc2n1Cc1ccccc1)c1ccc2c(c1)CCCC2 18.5%
CCc1ccc(-n2c(=O)c3c(C)c(C)sc3n(CC(=O)NCc3ccc(C)cc3)c2=O)cc1 -13%
CCOC(=O)c1ccc(NC(=O)/C(C#N)=C/c2ccc(OC)cc2)cc1 -20.8%
CCCCc1nn2c(=O)cc(COC(=O)c3cccc(NC(=O)CCc4ccccc4)c3)nc2s1 -5.15%
Cc1ccc(CSc2oc(-c3ccco3)nc2S(=O)(=O)c2ccc(C)cc2)cc1 -12.3%
COc1cc(/C=C(\C#N)c2nc3ccccc3[nH]2)cc(Cl)c1OCc1ccccc1Cl -17.4%
COc1cc2nc(SCC(=O)Nc3c(C)cc(C)cc3C)n3nc(CCn4c(C)nc5ccccc54)nc3c2cc1OC 6.2%
Cc1ccc(NS(=O)(=O)c2ccc3[nH]c(=O)oc3c2)c(C)c1 -8.65%
O=C(CCC1N=C2c3ccccc3N=C(SCc3ccc(Cl)cc3)N2C1=O)NCCc1ccccc1 (stereo unspecified) -6.6%
CCc1cccc(C)c1NC(=O)c1cc(S(=O)(=O)NCc2ccccc2Cl)ccc1F 10.9%
CC(=O)NCC(c1ccc2c(c1)OCO2)N1CCN(c2ccccc2)CC1 (stereo unspecified) -11.4%
CCCn1c2ccccc2c2cnn(CC(=O)N(C)c3ccccc3CC)c(=O)c21 0.489%
CCOC(=O)c1c(S(=O)(=O)NCC(=O)N2CCN(c3ccccc3)CC2)c(C)n(C)c1C -1.42%
Fc1ccc(C(NCCc2ccc(Cl)cc2)c2nnc(-c3ccccc3)o2)c(Cl)c1 (stereo unspecified) -11.1%
COc1ccccc1CNC(=O)CCn1c(=O)c2ccccc2n(CC(=O)Nc2ccc(C)cc2Cl)c1=O 18.8%
CCOc1ccc(C(=O)c2cn(CC(=O)Nc3ccc(F)cc3)c3cc4c(cc3c2=O)OCO4)cc1 0.136%
CCOc1ccccc1CNC(=O)CCCn1ncn2c(cc3occc32)c1=O -7.93%
COc1ccc(CCNC(=O)Cn2c(=O)nc(-c3ccccc3)c3ccccc32)cc1OC -10.5%
COc1ccc(N(CC(=O)NCc2ccccc2Cl)S(=O)(=O)c2c(C)nn(C)c2C)cc1 2.79%
Cc1ccc2cccc(NC(=O)COc3cc(C)c(Cl)c(C)c3)c2n1 -14.1%
CN(C)CCCN(C(=O)c1ccc(Br)s1)c1nc2ccc(F)cc2s1 -14.4%
Cn1c(=O)c(=O)n(C)c2cc(NC(=O)c3cccc(F)c3)c(Cl)cc21 -17.2%
CCCSCCCNC(=O)C1CCCN(c2nn3cc(-c4ccc(OC)cc4)nc3s2)C1 (stereo unspecified) 2.15%
CCCCN(CC)CCNC(=O)CN1C(=O)COc2ccc(S(=O)(=O)N3CCCC3)cc21 -9.18%
Cc1ccc(CCNC(=O)CCn2nc(-c3ccccc3)ccc2=O)cc1 -15.3%
Cc1nn(CC(=O)Nc2ccccc2C(F)(F)F)c(=O)c2cccn12 -8.38%
O=C(NCCc1ccccc1)c1ccc(Cn2c(SCc3cccc(F)c3)nc3cccnc32)cc1 -27.2%
Cc1ccccc1NC(=O)N1CCc2c(sc3c2CCCC3)C1c1ccccc1 (stereo unspecified) -7.12%
COc1ccc(NC(=O)c2ccc3nc(CCc4ccccc4)oc3c2)c(OC)c1 6.17%
CCOc1ccc(C(=O)Nc2c(C(=O)c3ccc(OC)cc3)oc3ccccc23)cc1 13.7%
CCCCCn1cc2c(c1-c1ccc(Br)cc1)c(=O)n(C)c(=O)n2C -10.9%
CCC(=O)Nc1ccc(CC)cc1-c1nc2ccccc2n(CC(=O)Nc2cccc(Cl)c2)c1=O -1.49%
O=C(Cn1c(=O)oc2cc(Cl)ccc21)Nc1cccc(C(F)(F)F)c1 -5.95%
Cc1nc2ncnn2c(C)c1CCC(=O)N1CCN(c2ccccc2)CC1 -0.21%
COc1cccc(NC(=O)Cn2nnc(-c3nc(-c4ccccc4)no3)c2N)c1 -24.4%
COc1ccc(OC)c(NC(=O)c2cc3cc(C)ccc3n2C)c1 -7.5%
CCc1ccccc1NC(=O)Cn1c(=O)n(-c2ccc(C)cc2)c(=O)c2c1c1cc(C)ccc1n2C -15.5%

Reference: PubChem BioAssay AID1159614 (National Center for Advancing Translational Sciences (NCATS), 2016)
